Among all 110,000 compounds or so, about 230 (0.21%) showed an effect of 50% or more. Some of the results follow.
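Note: 30 min substrate incubation versus DMSO and 10 µM JCP410 controls.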

Sequence of DPAP1 (Q8IIJ9 whole entry, looked up): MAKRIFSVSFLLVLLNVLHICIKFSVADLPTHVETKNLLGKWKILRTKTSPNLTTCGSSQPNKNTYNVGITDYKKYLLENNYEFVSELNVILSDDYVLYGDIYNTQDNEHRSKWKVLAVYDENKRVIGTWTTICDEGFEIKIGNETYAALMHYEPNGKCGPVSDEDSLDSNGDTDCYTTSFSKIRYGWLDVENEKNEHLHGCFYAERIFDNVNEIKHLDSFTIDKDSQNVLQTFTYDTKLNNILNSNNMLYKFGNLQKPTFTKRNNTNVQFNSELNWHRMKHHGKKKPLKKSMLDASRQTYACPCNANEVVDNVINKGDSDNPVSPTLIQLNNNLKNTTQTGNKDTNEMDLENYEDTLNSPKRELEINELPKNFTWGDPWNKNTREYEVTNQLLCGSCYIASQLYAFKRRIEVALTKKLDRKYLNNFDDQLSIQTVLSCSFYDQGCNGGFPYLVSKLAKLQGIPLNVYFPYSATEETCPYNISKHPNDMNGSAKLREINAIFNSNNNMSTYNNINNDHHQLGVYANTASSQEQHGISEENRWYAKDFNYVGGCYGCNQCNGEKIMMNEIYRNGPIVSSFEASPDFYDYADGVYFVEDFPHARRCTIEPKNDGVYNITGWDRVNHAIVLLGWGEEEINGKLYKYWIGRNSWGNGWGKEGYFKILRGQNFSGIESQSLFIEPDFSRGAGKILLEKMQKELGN

The test addresses DPAP1 (Plasmodium falciparum, UniProt Q8IIJ9). Nature of the test: primary screen, percent inhibition; read by cleavage of a fluorogenic dipeptide substrate; higher = more effect of the substance. More on the design: species or system P. falciparum D10 trophozoite lysates; single well.
In the case of `O=S(=O)(NCc1csc2c1CCCC2)c1ccc(-n2cnnn2)cc1`, the “% Inhibition @ 10 uM” value is 5.88%.
Regarding `CCOc1ccccc1C(=O)Nc1cccc(Cl)c1C`, the “% Inhibition @ 10 uM” value is given as 3.8%.
The figure for `CC(NC(=O)NC1CCCCC1)c1ccccc1` (centres unmarked) is -0.425%; for `COc1ccc(-c2nc3cc(C)ccn3c2NC(=O)C(C)C)cc1` it is -4.23%.
Take `CCOc1ccc(CCNCc2c(C)[nH]c(C)c2C(=O)O)cc1`: the “% Inhibition @ 10 uM” value was -3.67%.
With `COc1ccc(-c2nc(C(F)(F)F)c(OC)o2)cc1OC`, the “% Inhibition @ 10 uM” value is reported as -1.63%.
The value for `NC(Cc1ccc(OC(F)(F)F)cc1)C(=O)O` (centres unmarked) was -3.07%; that for `CCOC(=O)Nc1ccc2c(c1)N(C(=O)CCN1CCN(CCO)CC1)c1ccccc1CC2` was -4.39%; that for `CC(C)C1Nc2c(C(=O)O)cccc2C2C=CCC21` (centres unmarked) was -1.2%.
The figure for `CCN(CC)C(=O)/C=C/c1ccc(Cl)cc1` is 3%.
Take `O=[N+]([O-])c1cc(NCC2CCCCC2)ccc1Cl`: the “% Inhibition @ 10 uM” value is 0.217%.
The value for `CC(=O)Nc1ccc(NC(=O)C(C)Oc2ccc(C)cc2)cc1` (centres unmarked) was -5.13%; that for `CN1CCC(N(C)c2ncnc3sc4c(c23)CCCC4)CC1` was 1.83%.
Take `CCC1CCc2c(sc(NC(=O)c3ccccc3)c2C(N)=O)C1` (centres unmarked): the “% Inhibition @ 10 uM” value amounted to 11.6%.
The value for `Cc1ccc(-c2noc(CN(C)S(=O)(=O)c3ccc(C)cc3)n2)cc1` was 5.42%; that for `CCc1ccc2[nH]c3nc(SC(C)C)nnc3c2c1` was 4.18%; that for `CC(C)C[C@H](NC(=O)c1ccnc(N2CCCC2)c1)C(=O)NCC#N` was -2.35%.
The figure for `CCn1cc(C(=O)O)c(=O)c2cnc(N3CCN(C(=S)NCc4ccccc4)CC3)nc21` is -3.23%; for `N#CC1=C(N)Oc2cc(N)ccc2C12C(=O)Nc1ccc(Br)cc12` (centres unmarked) it is 2.13%.
As to `CCOC(=O)c1c(C)oc2nc(C)nc(NCCN(Cc3ccco3)C3CCCC3)c12`, the “% Inhibition @ 10 uM” value stood at 3.26%.
The value for `Cc1cc(O)c(C2=NCCSC(c3cccc(Cl)c3Cl)C2)c(=O)o1` (centres unmarked) was -0.0372%; that for `Cc1ccc(NC(=O)Cn2cnc3c2c(=O)n(C)c(=O)n3C)c(C)c1` was -2.17%.
The value for `CCOc1cccc(C(=O)Nc2cccc(Cl)c2)c1` was -4.38%; that for `Cn1c(=O)n(Cc2ccc(Br)cc2)c2ccccc21` was 2.13%; that for `CS(=O)(=O)N1c2ccccc2C=CC1c1c[nH]c2ccccc12` (centres unmarked) was 1.84%.
Take `COc1ccc(/C=C2/C(=N)N3C(SC)=NSC3=NC2=O)cc1Br`: the “% Inhibition @ 10 uM” value is -2.87%.
The figure for `CCOC(=O)c1ccc(NC(=O)COc2cccc(C)c2)cc1` is -5.51%; for `CC1CC2(CCCCCC2)NCc2ccccc21` (centres unmarked) it is -13.3%; for `CN(C)c1ccc(C2CC(c3ccc(Cl)cc3)=NN2c2ccccc2)cc1` (centres unmarked) it is -0.267%.

The values are drawn from article PMC6919601, “Identification of Plasmodium dipeptidyl aminopeptidase allosteric inhibitors by high throughput screening” (PLoS ONE, 2019).
